Assay results from article PMC9621596.

Biological target: T1, LexA (Escherichia coli (ExPEC FY26?)) (UniProt B7NSK5)
T1 sequence: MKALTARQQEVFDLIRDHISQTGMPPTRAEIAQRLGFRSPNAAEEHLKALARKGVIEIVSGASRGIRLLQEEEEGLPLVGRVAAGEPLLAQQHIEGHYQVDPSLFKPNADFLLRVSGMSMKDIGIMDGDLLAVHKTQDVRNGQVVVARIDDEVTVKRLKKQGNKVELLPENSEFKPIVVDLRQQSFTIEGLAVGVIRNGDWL
Assay: EMSA
Settings: EMSA: 30 min at room temperature, binding buffer, salt and pH not given; 6% native PAGE in 0.5x TBE, 100 V, SYBR Gold stain

| Sequence | binding |
| --- | --- |
| TCAGCAGGTAGTGCCGGGTACTGGTTTTTACAGTTGCTCGATAAAGTCACGCCCTCACAGTGGGCGGCAATAGGTGTGCTGGGTAGCCTGGTATTTGGCCTGCTGACGTACCTGACAAACCTTTATTTCAAGATTAAAGAAGATAAGCGCAAGGCTGCGAGAGGTGAATAATGCCTCCATCATTACGAAAAGCCGTTGCT (double strand) [epel1 promoter (Pepel1)] | binds |
| TGACCTGGACATCTCGCTGGACCGTGTTGAAGGTGCCGCGCTGGGGTTTTATGAGGCAGCAGCCAGAAGGAGCATCAGACAGGTCTTCAAGGATGAATTCGCGCGGTTATGTGAAGGGGATGAGCAGTCGCCGGAAAAGCGCCCCGTAATTTTAGAGGCGCAGAATGTGTGGATAACCTACAAAGGAAAGCTACCAGGAA (double strand) [epel2.2 promoter, LexA box deleted (MutPepel2.2)] | no binding |
| TGAGGAGGGTAAATCTCTTCAGTAAGCTTAATGGCGGACGCTGCAATTAATTCAGGAAGGTCCGCAAGGTCATCTGTCAGTGGATATGATGAAAAATCGGCGGCAGTTCTGTTAAGAAGCGCTTTAACTAATTCCTTTTCCTTCTCCGGCAACAAGTTGATTAGAGCTACGACTGCTTGCCTGAGTGCGATTAAATCAGC (double strand) [epel2.1 promoter (Pepel2.1)] | binds |
| TGACCTGGACATCTCGCTGGACCGTGTTGAAGGTGCCGCGCTGGGGTTTTATGAGGCAGCAGCCAGAAGGAGCATCAGACAGGTCTTCCTGGATGTTGCTGCCGGGTTATGTGAAGGGGATGAGCAGTCGCCGGAAAAGCGCCCCGTAATTTTAGAGGCGCAGAATGTGTGGATAACCTACAAAGGAAAGCTACCAGGAA (double strand) [epel2.2 promoter (Pepel2.2)] | binds |
| GCTGATTTAATCGCACTCAGGCAAGCAGTCGTAGCTCTAATCAACTTGTTGCCGGAGAAGGAAAAGGAATTAGTTAGGGCAATTCTTATTAAAACTGCCGCCGATTTTTCATCATATCCACTGACAGATGACCTTGCGGACCTTCCTGAATTAATTGCAGCGTCCGCCATTAAGCTTACTGAAGAGATTTACCCTCCTCA (double strand) [epel2.1 promoter, LexA box deleted (MutPepel2.1)] | no binding |
| AGCAACGGCTTTTCGTAATGATGGAGGCATTATTCACCTCTCGCAGCCTTGCGCTTATCTTCTTTAATCTTGAAATAAAGGTTTAACAAATAGGTCTTCAGGCCAAATACCAGGCTACCCAGCACACCTATTGCCGCCCACTGTGAGGGCGTGACTTTATCGAGCAACTGTAAAAACCAGTACCCGGCACTACCTGCTGA (double strand) [epel1 promoter, LexA box deleted (MutPepel1)] | no binding |
